PubChem BioAssay AID686978 (National Center for Advancing Translational Sciences (NCATS), 2013)
Hit rate of the full screen: of about 420,000 compounds, about 64,000 (15%) were called active. This list was built around the results that the source calls inconclusive (neither active nor inactive); the mix of calls is not that of the screen. Calls follow the shape of the dose curve; as a rule, active = well fitted inhibition curve with a large enough effect; inconclusive = small, poorly fitted or top-dose-only effect; inactive = flat fitted curve, though single readings scatter. No potency is given beside an inconclusive call; the fits are too rough.
% is scaled to controls: 0 for no effect and ±100 for the full control effect; potency is read from the fitted curve at half-maximal effect; tags tell the direction and shape of the fitted curve.

Assay: qHTS for Inhibitors of human tyrosyl-DNA phosphodiesterase 1 (TDP1): qHTS in cells in absence of CPT; also: nearly all actives have a fitted effect of over 55% in size
Conditions: DT40 Tdp1-/- hTDP1 cells, no CPT, ATP luminescence, 48 h; activity change, negative = growth inhibition: at 46.2 µM (top of the series)
Procedure, shortened: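 A cellular qHTS used chicken DT40 cells lacking endogenous Tdp1 but carrying stably transfected human TDP1. Compounds were applied without camptothecin, and cell growth kinetics were judged by ATP-dependent luminescence after ≥48 hr.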
In the case of `CC(=O)N1CCN(S(=O)(=O)c2cccc(C(=O)OCc3cccc(F)c3)c2)CC1`, the Potency is reported as active: 23.1 µM.
With `COC(=O)[C@H](C)NC(=O)Nc1ccc(OC)cc1OC` the Potency was “inactive”.
In the case of `COc1ccc(-c2ccc(SCC(=O)c3ccc(F)cc3)nn2)cc1OC`, the Potency is reported as inconclusive [inhibitor, partial curve, poor fit].
For `Cc1ccc(NS(=O)(=O)c2ccc3c(c2)CCN3C(=O)CCC(=O)O)cc1Cl`, the Potency was “inactive”.
For `COc1ccc(NC(=O)C(C)N2C(=O)c3ccccc3S2(=O)=O)c(OC)c1` (stereo not given), the Potency was “inactive”.
With `Cc1ccc(NC(=O)c2ccc(COc3ccc4c(c3)CCC4)cc2)c(C)c1` the Potency was inconclusive [inhibitor, single point].
For `COc1cccc(-c2cc(C(F)(F)F)nc(-n3cc(Cl)cn3)n2)c1`, the Potency was active: 16.4 µM.
In the case of `CC1Oc2ccccc2N(CC(=O)N2CCCC2)C1=O` (stereo not given), the Potency is reported as “inactive”.
In the case of `Cc1ccc(C)c(OCCCN2CCc3ccccc3C2)c1`, the Potency is reported as inconclusive [inhibitor, single point].
With `O=C(NNc1cccc(Cl)c1)c1cccnc1Oc1ccccc1` the Potency was “inactive”.
In the case of `O=C1NC2=C(C(=O)CCC2)C(c2ccccc2)N1` (stereo not given), the Potency is reported as “inactive”.
With `Cc1ccc2nc(N(CCCN(C)C)C(=O)CCc3ccccc3)sc2c1` the Potency was inconclusive [inhibitor, single point].
In the case of `CCOC(=O)C1(Cc2ccccc2C)CCCN(C(=O)c2ccc(C(C)=O)s2)C1` (stereo not given), the Potency is reported as inconclusive [inhibitor, single point].
For `CCOC(=O)[C@]12CCCC=C1N(Cc1ccc3c(c1)OCO3)C(=O)[C@H](CC(=O)NCc1ccc(C)o1)C2`, the Potency was inconclusive [inhibitor, single point].
For `COc1cc(C(=O)O/N=C2\C=CC(=O)C(C)=C2)cc(OC)c1OC`, the Potency was active: 16.4 µM.
In the case of `CCOC(=O)CCCNc1ccc([N+](=O)[O-])cc1[N+](=O)[O-]`, the Potency is reported as “inactive”.
With `O=C(COC(=O)c1cncc(Br)c1)Nc1ccc(N2CCCCC2)cc1` the activity change, negative = growth inhibition was inconclusive: -30.9% [inhibitor].
For `O=C(N/N=C/c1cccs1)c1cccc(S(=O)(=O)Nc2ccc(Cl)cc2)c1`, the Potency was inconclusive [inhibitor, single point].
In the case of `Cc1ccc(Nc2c(-c3ccccc3O)nc3cc(C)ccn23)cc1`, the Potency is reported as inconclusive [inhibitor, single point].
In the case of `CCCOc1cccc(-c2nc3ccccc3c(=O)o2)c1`, the Potency is reported as inconclusive [inhibitor, single point].
For `COc1ccc(N2CCN(S(=O)(=O)CCNC(=O)c3ccc(OC(C)C)cc3)CC2)cc1`, the Potency was “inactive”.
For `N/C(=N\OC(=O)c1ccc(Cl)c(Cl)c1)c1cccc(CSc2ccccn2)c1`, the Potency was “inactive”.
With `Cc1cc(C(=O)CSc2nc3ccccc3[nH]2)c(C)n1CC1CCCO1` (stereo not given) the Potency was active: 5.17 µM.
In the case of `COc1ccc(Oc2nc(-c3cccnc3)nc3ccccc23)cc1`, the Potency is reported as inconclusive [inhibitor, single point].
With `Cc1c(NC(=O)COC(=O)c2ncc(Cl)c(Cl)c2Cl)c(=O)n(-c2ccccc2)n1C` the Potency was “inactive”.
With `CCNc1nc(ON=C(C)C)nc(N(C)C)n1` the Potency was inconclusive [inhibitor, single point].
With `CCn1nc(C(=O)Nc2ccccc2C)c(Cl)c1Cl` the activity change, negative = growth inhibition was inconclusive: -35% [inhibitor].
For `CC(C)(C)NC(=O)CSc1nnc(SCC(=O)NC(C)(C)C)s1`, the Potency was “inactive”.
With `O=C(Nc1ccccc1)C1=C[C@@H](C2CCCCC2)C[C@@H](OCc2ccc(CO)cc2)O1` the Potency was active: 23.1 µM.
With `COc1ccccc1/C=C/c1nc(C#N)c(N2CCN(c3ccccc3)CC2)o1` the Potency was inconclusive [inhibitor, partial curve].
For `Cc1ccc(-c2nn(-c3ccccc3)cc2/C=C(\C#N)C(=O)NCc2ccccc2)cc1`, the Potency was inconclusive [inhibitor, partial curve].
For `CC(C)Cn1c2nc3ccccc3nc2c2c(=O)n(CCN3CCOCC3)cnc21`, the Potency was inconclusive [inhibitor, partial curve].
In the case of `CCOc1cc(/C=N/NC(=O)CSc2nnc(C)s2)ccc1OCc1ccccc1Cl`, the Potency is reported as inconclusive [inhibitor, single point].
With `CCC(O)CNC(=O)c1cnn(-c2ncc3c(n2)-c2ccccc2CCC3)c1C1CC1` (stereo not given) the Potency was inconclusive [inhibitor, single point].
With `CN1OC[C@@H]2CN(Cc3ccc(Cl)cc3)[C@H](c3cccc(Br)c3)C[C@@H]21` the Potency was active: 16.4 µM.
In the case of `S=C(c1cn(Cc2ccccc2)c2ccccc12)N1CCOCC1`, the activity change, negative = growth inhibition is reported as inconclusive: -30.8% [inhibitor].
In the case of `COc1ccc(CC(=O)Nc2ccc(-c3cn4cccc(C)c4n3)cc2)cc1OC`, the Potency is reported as active: 23.1 µM.
For `CN(C)c1cccc(F)c1C(=O)NC(=O)Nc1ccc(Cl)cc1`, the Potency was active: 6.51 µM.
With `O=C(NCCc1ccccc1)c1cc2sccc2n1Cc1ccc(F)cc1` the Potency was “inactive”.
With `O=C(/C=C/c1ccco1)OCc1nnc(-c2ccccc2)o1` the Potency was “inactive”.
For `Cn1c(CCNC(=O)c2ccccc2F)nnc1SCC(=O)Nc1ccccc1F`, the Potency was “inactive”.
In the case of `COC(=O)Nc1ccc(OCc2ccccc2)cc1`, the Potency is reported as “inactive”.
In the case of `CCc1cc(C(=O)N/N=C/c2ccc(O)cc2)c2ccccc2n1`, the Potency is reported as active: 8.2 µM.
With `Cc1ccc(/C=C2\SC(=S)N(CCCC(=O)Nc3cccnc3)C2=O)cc1` the Potency was inconclusive [inhibitor, single point].
For `NNC(=O)c1oc2nc(-c3ccco3)cc(-c3ccco3)c2c1N`, the Potency was inconclusive [inhibitor, partial curve, poor fit].
With `Cc1cccc(NC(=S)NC2CC3CCCC(C2)N3Cc2cccs2)c1` (stereo not given) the Potency was active: 23.1 µM.
With `CN(C)S(=O)(=O)c1ccc(N2CCCC2)c(C(=O)Nc2ccccc2N2CCOCC2)c1` the Potency was inconclusive [inhibitor, partial curve, poor fit].
With `CCN1CCN(c2ccc(S(=O)(=O)N3CCCCC3)cc2NC(=O)c2cccc(F)c2)CC1` the Potency was “inactive”.
With `CSc1cccc(NC(=O)C(c2ccccc2)N2Cc3ccccc3C2=O)c1` (stereo not given) the Potency was “inactive”.
In the case of `CCN(CC)c1ccc(S(=O)(=O)N2CCCCC2)cc1NC(=O)C1CSC2(C)CCC(=O)N12` (stereo not given), the Potency is reported as active: 9.2 µM.
For `Oc1ccc(N=Nc2ccccc2C(F)(F)F)c2cccnc12`, the Potency was active: 1.03 µM.
In the case of `Cc1[nH]nc2c1C(c1cn[nH]c1-c1ccc(F)cc1)C(C#N)=C(N)O2` (stereo not given), the Potency is reported as inconclusive [inhibitor, single point].
With `O=S(=O)(c1ccc(Br)cc1)N1CCN(c2ccccc2)CC1` the Potency was “inactive”.
For `CCOc1ccc(NC(=O)CN(C)C(=O)Cn2c(=O)cnc3ccccc32)cc1OCC`, the Potency was “inactive”.
With `CCN1CCN(c2ncnc3c2sc2nc(N4CCOCC4)c4c(c23)CCC4)CC1` the Potency was inconclusive [inhibitor, single point].
With `COc1ccc([N+](=O)[O-])cc1NC(=O)c1ccc(CN(c2ccccc2)S(C)(=O)=O)cc1` the Potency was inconclusive [inhibitor, single point].
With `O=C(c1ccc(Cl)cc1)N1CCC(O)(CSc2ccccc2)CC1` the Potency was inconclusive [inhibitor, single point].
For `CCN(CC)CCCNC(=O)c1ccc(CS(=O)(=O)c2ccccc2OC)o1`, the Potency was “inactive”.
In the case of `NS(=O)(=O)c1ccc(CCNC(=O)c2ccc(Cn3c(=O)[nH]c4ccccc4c3=O)cc2)cc1`, the Potency is reported as “inactive”.
In the case of `Cc1cccnc1NC(=O)c1ccc(S(=O)(=O)N2CC(C)OC(C)C2)cc1` (stereo not given), the Potency is reported as inconclusive [inhibitor, full curve, poor fit].
In the case of `O=C(NCCOc1ccc(F)cc1)C1CCC(=O)N(Cc2ccc(Cl)cc2)C1` (stereo not given), the Potency is reported as inconclusive [inhibitor, single point].
In the case of `CNC(=O)c1c(NC(=O)c2ccc(S(=O)(=O)N3CCCC(C)C3)cc2)sc2c1CCC2` (stereo not given), the Potency is reported as active: 18.4 µM.
With `COc1cc2c(cc1OC)-c1cc(NC3CC3)nc(=O)n1CC2` the activity change, negative = growth inhibition was inconclusive: -31% [inhibitor].
For `Cc1cc(C(=O)COc2cccc(-n3cnnn3)c2)c(C)n1-c1ccccc1`, the Potency was active: 20.6 µM.
For `O=C(NCC(c1ccc(F)cc1)N1CCOCC1)c1ccc(C(=O)c2ccccc2)cc1` (stereo not given), the Potency was active: 20.6 µM.
In the case of `Cc1nnc(SCC(=O)NNC(=O)c2ccc(Cl)cc2)n1CC1CCCO1` (stereo not given), the Potency is reported as “inactive”.
For `CCCCOc1ccc(C(=O)Nc2onc3c2CCCC3)cc1`, the Potency was inconclusive [inhibitor, single point].
In the case of `O=C1CC(N2CCN(C3CC(=O)N(CCc4ccccc4)C3=O)CC2)C(=O)N1CCc1ccccc1` (stereo not given), the Potency is reported as inconclusive [inhibitor, partial curve, poor fit].
For `CCCCNC(=O)CCCCC(=O)N/N=C/c1ccccc1Cl`, the Potency was inconclusive [inhibitor, single point].
With `O=C(c1ccc(S(=O)(=O)c2ccc(Cl)cc2)cc1)N1CCOCC1` the Potency was inconclusive [inhibitor, single point].
With `COc1cc(C(=O)Nc2sc3c(c2C(=O)O)CCC(C)C3)cc(OC)c1OC` (stereo not given) the Potency was “inactive”.
For `O=C(C1=C[C@@H](C2CCCCC2)C[C@@H](OCCCCO)O1)N1CCN(Cc2ccccc2)CC1`, the Potency was inconclusive [inhibitor, single point].
In the case of `CC(=O)NC1(c2ccccc2)CCN(c2nc(C)cc(C)n2)CC1`, the Potency is reported as “inactive”.
In the case of `CCC(C)[C@@H](CN)NCC1(c2ccccc2)CC1` (stereo not given in full), the Potency is reported as “inactive”.
With `Cc1cc(C)cc(NC(=O)Nc2cccs2)c1` the Potency was inconclusive [inhibitor, single point].
